In all, about 33,000 sequences were measured (“E-score (-0.5 to 0.5)”: median about -0.012, highest 2% from about 0.29 on). Some of the results follow.
What follows are sequences tested against T1, Ybr033w (UniProt P38073) (assay: PBM E-score (8-mer binding enrichment) (E-score (-0.5 to 0.5)); higher = stronger / more preferred TF binding; most listed sequences are background and not binding sites). Conditions: protein concentration: 200 nM; construct: GST-full length.
T1 sequence: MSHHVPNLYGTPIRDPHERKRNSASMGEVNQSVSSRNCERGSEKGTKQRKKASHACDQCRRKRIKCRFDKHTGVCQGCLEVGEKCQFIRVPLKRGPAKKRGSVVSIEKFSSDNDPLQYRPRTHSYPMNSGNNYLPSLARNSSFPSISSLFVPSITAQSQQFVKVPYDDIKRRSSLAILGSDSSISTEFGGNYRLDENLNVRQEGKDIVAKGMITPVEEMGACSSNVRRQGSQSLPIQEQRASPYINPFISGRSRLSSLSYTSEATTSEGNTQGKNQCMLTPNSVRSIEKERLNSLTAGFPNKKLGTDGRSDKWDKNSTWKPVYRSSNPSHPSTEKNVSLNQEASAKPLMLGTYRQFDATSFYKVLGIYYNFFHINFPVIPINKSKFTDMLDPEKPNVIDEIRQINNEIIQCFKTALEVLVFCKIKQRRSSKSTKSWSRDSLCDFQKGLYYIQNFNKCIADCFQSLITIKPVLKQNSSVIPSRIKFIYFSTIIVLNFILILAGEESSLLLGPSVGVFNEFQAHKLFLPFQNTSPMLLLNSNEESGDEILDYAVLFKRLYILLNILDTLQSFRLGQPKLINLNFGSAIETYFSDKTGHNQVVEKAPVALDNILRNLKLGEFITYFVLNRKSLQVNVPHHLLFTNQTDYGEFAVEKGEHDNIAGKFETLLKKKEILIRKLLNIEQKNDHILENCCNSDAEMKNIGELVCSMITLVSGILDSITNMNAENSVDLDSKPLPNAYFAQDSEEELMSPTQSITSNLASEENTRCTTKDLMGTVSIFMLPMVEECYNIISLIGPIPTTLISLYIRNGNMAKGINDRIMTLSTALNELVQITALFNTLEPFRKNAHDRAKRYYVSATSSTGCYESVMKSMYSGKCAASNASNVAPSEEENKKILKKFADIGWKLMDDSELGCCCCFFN
Method: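 Universal 'all 10-mer' protein binding microarrays (Agilent AMADID 015681) probed with GST-tagged S. cerevisiae TFs (full-length or DBD) made by in vitro transcription/translation (PURExpress), about 100-200 nM. Bound TF was detected with fluorescent anti-GST. Each ungapped 8-mer (which stands for itself and its reverse complement) is scored by the PBM enrichment score (E-score), a modified Wilcoxon-Mann-Whitney statistic from -0.5 to +0.5, computed with the Universal PBM Analysis Suite. Scale: above 0.35 generally sequence-specific binding.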

Sequence | PBM E-score
CACCCCTA | -0.235
GTAGCCCA | -0.121
GCAGGGGA | -0.405
CGGAACGC | -0.188
AGCCTGGC | -0.112
ATAAATCA | 0.223
AGTGGAGC | -0.0976
AGGTGGCA | 0.0529
CGGAGCTA | -0.0927
CCGGTGAA | 0.00182
TATGCCAA | 0.0532
AACTTGAC | -0.0113
CTACGGAA | 0.0733
GCGCCGAC | -0.263
CCCTGCAC | -0.0773
GCATTAGA | 0.133
GAGAGTAC | 0.0366
GATACCGA | -0.155
GGATACCA | -0.0342
AAGGTCGT | -0.00228
AGGGAGTC | -0.193
AAAGCCTC | -0.0396
ACAGTGGC | -0.228
CGTTCAAG | -0.00623
GGGCTGGA | -0.0412

Sequence | PBM E-score
GCAGAGGA | -0.0964
AACACAGT | 0.0158
TCCCATAA | -0.0456
TACCTCGA | 0.116
CAGTAACG | 0.0315
CCGCTTCC | -0.211
ATTTACCA | 0.212
ACAGTTGC | -0.047
CCACTTAA | 0.0531
AGGTGCTC | -0.398
CATCTACG | 0.0592
AAGAGATC | -0.0848
AAACTCGC | 0.0504
AGCCCCAC | -0.179
CTATCCTA | 0.00969
CGGTAATC | -0.156
AGCATCCA | 0.0677
GCAAATCC | 0.041
CTCCACAC | -0.0229
ATGGTTAG | 0.11
AACCGGAG | -0.0523
GGGGAGCA | -0.37
CTGCAAAG | -0.0144
GCCGCCAC | -0.349
CTGCTTAA | 0.0805

Sequence | PBM E-score
CTGCCCAG | -0.178
CCAGTTAG | -0.0484
ACAACGTG | 0.0817
CTGAAGTA | 0.107
CAGCTAAG | -0.119
CGGCAACG | -0.278
GGCTAGAC | -0.144
CCATTGCA | 0.0345
ACCGACCG | -0.227
AGTTCTAC | 0.0539
CAATTGAC | 0.0302
CTCGAACA | -0.0315
ACTTACTG | -0.00657
CCGTAGCC | -0.324
CCACCGCC | -0.206
GAGACTCA | -0.028
ATTTGGCA | -0.0652
GGCAACCA | -0.0635
AGATGAAG | -0.104
GCCTGTTA | 0.0795
ACTCATGG | -0.0399
ATTTCTTC | 0.313
AGGGGCTG | -0.194
GCCGAAAA | 0.103
CTGTACGC | -0.24

Sequence | PBM E-score
CTAGTGCA | -0.0911
AGTCAACT | -0.00424
CAATCGGC | -0.0708
ACAAATTC | 0.259
CCTGACAG | -0.0485
GCCGCACC | -0.11
TGTGCCAA | 0.102
GCCAAACA | -0.15
CAGTATTC | 0.0587
CACAATAA | 0.179
CCAAGCTC | -0.0526
GCAAAGCA | -0.0947
GCTCGGCC | -0.191
AATCGGGA | 0.0682
CTCCCGTC | 0.0328
ACAGTACT | 0.104
AGGGCTCA | -0.155
CTATCGAC | -0.135
CCTGATCC | -0.147
CGAGCTTA | -0.0148
GCCGTCAA | -0.0411
AAGCTTGT | 0.158
GTTTGGCA | -0.0616
CTTCTGCC | -0.103
AAGGTTTG | 0.227

Sequence | PBM E-score
AGCGACAA | -0.0929
GACGGCTC | -0.2
CTGGAGCA | -0.00044
CCTATCTC | -0.0727
TATGGCAA | -0.151
AAATACCC | 0.149
CTACGTAA | -0.0597
ATGCCTGC | -0.0655
CATACAGA | 0.157
ATGGAGGC | -0.199
AAGTTCGA | 0.203
GATTAAAC | 0.17
ATGTCGTA | 0.0621
AGAACCTG | -0.156
CGTGTCCA | -0.102
TAACGATA | 0.292
AGGGACTC | -0.223
AGGGCGGA | -0.231
ACCAAGTG | -0.0899
GTCGGCGA | -0.258
TGATCGAA | -0.0706
CAGCTCAG | -0.144
CCTGTCCC | -0.255
ATATTTCC | 0.349
AATGGTGT | 0.088

Sequence | PBM E-score
TATGCCGA | 0.0683
ACAGCCTC | -0.291
CATTTTAG | 0.234
CGCTCCAC | -0.163
TCTTTACA | 0.196
ATGGCATG | 0.0798
AGCTAAAA | 0.137
ATTCGAAG | 0.00162
TAGAGCAA | 0.0322
AAGGCTGT | -0.138
CGCGGTAA | 0.12
AGGGCCTC | -0.226
GACCCTAC | -0.198
GGTCGAAA | -0.22
ATAGCGAT | -0.15
GGTACTCA | 0.0898
TATCACAA | 0.18
CTTTTGTC | 0.0178
GCACCATA | 0.155
CTGCCGTA | -0.0876
GGTTCGTA | 0.119
CCCTTCAC | -0.122
GCAAAGAC | -0.0169
AACAGACG | -0.113
AAACTTCG | 0.0988

Sequence | PBM E-score
GCATTCAC | 0.216
ACATCGGC | -0.0427
AAGAATAA | 0.222
ACAATAGT | 0.161
CTACATGC | -0.00181
AAGGAGCT | -0.219
GTCGTATA | 0.0833
ACGGCAAG | -0.282
CCAGACGA | -0.125
ATCTGGCA | -0.0201
ACTTGGAA | 0.022
AATGCCAC | -0.0522
AACTCAAG | 0.204
CGAAAGCG | -0.174
ACTTGGCG | -0.111
GCGACCCC | -0.204
AGTTGGTA | 0.169
AAGAATAG | 0.204
AATGGAAC | 0.178
ACCAGAGC | 0.0226
GGGACATA | 0.0156
CCTTGTCG | -0.192
